In EPA's CvTdb concentration-time database:
The source gives many values for each of these; only a part stands here.

Legend:
Experiment in all cases: concentration in plasma after dosing
Rat [1] = settings: dosed: Perfluorodecanoic acid, 10 mg/kg, oral, Male, Harlan Sprague Dawley
Rat [2] = settings: dosed: Perfluorodecanoic acid, 2 mg/kg, oral, Male, Harlan Sprague Dawley
Rat [3] = settings: oral
Rat [4] = settings: dosed: Perfluorodecanoic acid, 2 mg/kg, oral, Female, Harlan Sprague Dawley
Rat [5] = settings: dosed: Perfluorodecanoic acid, 2 mg/kg, oral, Male, Harlan Sprague Dawley; remark: listed apart in the source
Rat [6] = settings: 3360 h; dosed: Perfluorooctane Sulfonate; 20 mg/kg; oral; Male; Harlan Sprague Dawley
Rat [7] = settings: dosed: Perfluorooctane Sulfonate, 20 mg/kg, oral, Female, F344
Rat [8] = settings: dosed: Perfluorooctane Sulfonate, 20 mg/kg, oral, Female, F344; remark: listed apart in the source
Rat [9] = settings: 6 h; dosed: Perfluorooctane Sulfonate; 2 mg/kg; oral; Female; Harlan Sprague Dawley
Rat [10] = settings: 24 h; dosed: Perfluorooctane Sulfonate; 2 mg/kg; oral; Female; Harlan Sprague Dawley

O=C(O)C(F)(F)C(F)(F)C(F)(F)C(F)(F)C(F)(F)C(F)(F)C(F)(F)C(F)(F)C(F)(F)F [Perfluorodecanoic acid]
Settings | concentration in plasma [ng/mL]
Rat [1], 2 h | 27100
Rat [1], 528 h | 13900
Rat [1], 2520 h | 2940
Rat [2], 2 h | 6480
Rat [2], 528 h | 4150
Rat [2], 3360 h | 605
Rat [4], 6 h | 8460
Rat [4], 864 h | 2860
Rat [5], 0.5 h | 2770
Rat [5], 24 h | 10900
Rat [5], 1848 h | 1970

concentration in plasma [ng/mL], Rat [3], dosed: Perfluorodecanoic acid
Settings | 2 mg/kg | 10 mg/kg | 20 mg/kg
0.5 h, Female, Harlan Sprague Dawley | – | 11800 | 24500
0.5 h, Male, Harlan Sprague Dawley | 3030 | 9800 | 10800
1 h, Female, Harlan Sprague Dawley | – | 34700 | 44500
1 h, Male, Harlan Sprague Dawley | 5420 | 23100 | 29200
2 h, Female, Harlan Sprague Dawley | – | 34700 | 80500
2 h, Male, Harlan Sprague Dawley | 5620 | 24100 | 50000
6 h, Female, Harlan Sprague Dawley | 9950 | 43000 | 94100
6 h, Male, Harlan Sprague Dawley | 6240 | 37300 | 77400
12 h, Female, Harlan Sprague Dawley | – | 50600 | 107000
12 h, Male, Harlan Sprague Dawley | 10500 | 41500 | 80100
24 h, Female, Harlan Sprague Dawley | – | 59700 | 142000
24 h, Male, Harlan Sprague Dawley | 9900 | 36700 | 71600
24 h, Male, Harlan Sprague Dawley - this seems too small | – | 39200 | –
192 h, Female, Harlan Sprague Dawley | – | 52800 | 83300
192 h, Male, Harlan Sprague Dawley | 9630 | 27200 | 43600
528 h, Female, Harlan Sprague Dawley | – | 24200 | 40700
528 h, Male, Harlan Sprague Dawley | 2530 | 11900 | 29300
864 h, Female, Harlan Sprague Dawley | 3060 | 15700 | 32200
864 h, Male, Harlan Sprague Dawley | 1420 | 11700 | 19700
1200 h, Female, Harlan Sprague Dawley | – | 11700 | 27200
1200 h, Male, Harlan Sprague Dawley | 3040 | 5210 | 18600
1848 h, Female, Harlan Sprague Dawley | – | 6640 | 15000
1848 h, Male, Harlan Sprague Dawley | 1860 | 5370 | 7410
2520 h, Female, Harlan Sprague Dawley | – | 5900 | 14800
2520 h, Male, Harlan Sprague Dawley | 843 | 1840 | 6590
3360 h, Female, Harlan Sprague Dawley | – | 2650 | 7640
3360 h, Male, Harlan Sprague Dawley | 517 | 1890 | 4530

O=S(=O)([O-])C(F)(F)C(F)(F)C(F)(F)C(F)(F)C(F)(F)C(F)(F)C(F)(F)C(F)(F)F [Perfluorooctane Sulfonate]
Settings | concentration in plasma [ng/mL]
Rat [6] | 4670
Rat [9] | 6300
Rat [10] | 7880

concentration in plasma [ng/mL], Rat [3], dosed: Perfluorooctane Sulfonate
Settings | Female | Male
1 h, 2 mg/kg, Harlan Sprague Dawley | 1970 | –
1 h, 20 mg/kg, F344 | 39400 | 31500
1 h, 20 mg/kg, Harlan Sprague Dawley | – | 34100
5 min, 20 mg/kg, F344 | 254 | –
6 h, 2 mg/kg, Harlan Sprague Dawley | 6520 | –
6 h, 20 mg/kg, F344 | 91600 | –
6 h, 20 mg/kg, Harlan Sprague Dawley | – | 82100
12 h, 2 mg/kg, Harlan Sprague Dawley | 6170 | –
12 h, 20 mg/kg, F344 | 110000 | 98000
24 h, 2 mg/kg, Harlan Sprague Dawley | 7650 | –
24 h, 20 mg/kg, F344 | 119000 | –
24 h, 20 mg/kg, Harlan Sprague Dawley | – | 85500
192 h, 2 mg/kg, Harlan Sprague Dawley | 3550 | –
192 h, 20 mg/kg, Harlan Sprague Dawley | – | 66400
528 h, 2 mg/kg, Harlan Sprague Dawley | 4900 | –
528 h, 20 mg/kg, F344 | 69200 | 35600
864 h, 2 mg/kg, Harlan Sprague Dawley | 2890 | –
864 h, 20 mg/kg, F344 | 42900 | –
864 h, 20 mg/kg, Harlan Sprague Dawley | – | 26900
1200 h, 20 mg/kg, F344 | 24500 | 19700
1848 h, 2 mg/kg, Harlan Sprague Dawley | 1790 | –
1848 h, 20 mg/kg, F344 | 14600 | –
1848 h, 20 mg/kg, Harlan Sprague Dawley | – | 13300
2520 h, 2 mg/kg, Harlan Sprague Dawley | 313 | –
2520 h, 20 mg/kg, Harlan Sprague Dawley | – | 6880
3360 h, 2 mg/kg, Harlan Sprague Dawley | 633 | –
3360 h, 20 mg/kg, Harlan Sprague Dawley | – | 3020

concentration in plasma [ng/mL]
Settings | 5 min | 12 h | 192 h | 528 h | 2520 h
Rat [7] | 305 | – | 60200 | – | 7220
Rat [8] | – | 109000 | – | 68800 | –
